Patent publication US20260176373A1
Blank lines part the entries; values can stand above or below the binder they belong to.

Legend:
[1] = molecular target: endogenous HER2 and TROP2 on tumor cells expressing both; test: cell-based or functional assay
[2] = molecular target: endogenous HER2 and TROP2 on tumor cells expressing both; test: flow cytometry whole cell binding, HCC202 cells (HER2 and TROP2 both expressed)
[3] = molecular target: endogenous HER2 and TROP2 on tumor cells expressing both; test: flow cytometry whole cell binding, NCI-H441 cells (TROP2 very high, HER2 very low)
[4] = molecular target: endogenous HER2 and TROP2 on tumor cells expressing both; test: flow cytometry whole cell binding, SKBR3 cells (HER2 and TROP2 both expressed)
[5] = molecular target: endogenous HER2 and TROP2 on tumor cells expressing both; test: cell-based or functional assay; remark: listed apart in the source

- EC50 [2]: 1.58 nM
- EC50 [3]: 2.58 nM
- EC50 [4]: 0.99 nM
B1: 1H11-hv8_Fc_11D5 (bispecific antibody)
chain: EVQLVESGGGLVQPGGSLRLSCAASGGTFSRYIMGWFRQAPGKEREFVSTISGSGGSTYYADSVKGRFTISRDNSKNTLYLQMNSLRAEDTAVYYCASTFYSTTYVAQRDARDYAYWGQGTQVTVSS[here human IgG1 Fc with C220S (EU numbers) without letters]GSGGSGGSGGSGGSGQVQLVESGGGVVQPGRSLRLSCAASGSTFSSLAMHWVRQAPGKERELVAAISYSGGYTYYADSVKGRFTISRDNSKNTLYLQMNSLRAEDTAVYYCAASSIFIGAYDYWGQGTLVTVSS
- IC50, nM, Killing of HCC202 cells by 2nd Ab-MMAE [1]: 0.08 nM
- IC50, nM, Killing of SKBR3 cells by 2nd Ab-MMAE [1]: 0.101 nM

B2: 1H11-hv8_Fc_11D5-2C_MMAE (protein)
chain: B1 chain
modifications: here or on the partner: vc-MMAE conjugated to the hinge cysteines (2 Cysteines in each hinge region); DAR 3.7
- IC50, nM, in killing assay, A431 cells [5]: 0.17 nM
- IC50, nM, in killing assay, AU-565 cells [5]: 0.0198 nM
- IC50, nM, in killing assay, Colo205 cells [5]: 0.33 nM
- IC50, nM, in killing assay, N87 cells [5]: 0.04 nM
- IC50, nM, in killing assay, NCI-H441 cells [5]: 0.046 nM
- IC50, nM, in killing assay, NCI-H1975 cells [5]: 0.24 nM
- IC50, nM, in killing assay, OE-19 cells [5]: 0.069 nM
- IC50, nM, in killing assay, SK-OV3 cells [5]: 0.062 nM
- IC50, nM, in killing assay, T-47D cells [5]: 0.22 nM

- EC50 [3]: 5.3 nM
B3: 1H11-hv8+11D5_Fc (bispecific antibody)
chain: EVQLVESGGGLVQPGGSLRLSCAASGGTFSRYIMGWFRQAPGKEREFVSTISGSGGSTYYADSVKGRFTISRDNSKNTLYLQMNSLRAEDTAVYYCASTFYSTTYVAQRDARDYAYWGQGTQVTVSSGSGGSGGSGGSGQVQLVESGGGVVQPGRSLRLSCAASGSTFSSLAMHWVRQAPGKERELVAAISYSGGYTYYADSVKGRFTISRDNSKNTLYLQMNSLRAEDTAVYYCAASSIFIGAYDYWGQGTLVTVSS[here human IgG1 Fc with C220S (EU numbers) without letters]
- IC50, nM, Killing of HCC202 cells by 2nd Ab-MMAE [1]: 0.11 nM
- IC50, nM, Killing of SKBR3 cells by 2nd Ab-MMAE [1]: 0.131 nM
